Reference: patent US20210047304A1, “Bromodomain Inhibitors” (AbbVie Inc., priority 2016, published 2021)
pKi: −log10 of the molar value.

Target: BRD4 (BDII_E352-M457) (Homo sapiens, UniProt O60885)
Test: TR-FRET bromodomain binding assay, BRD4 BDII
Experimental: A time-resolved fluorescence resonance energy transfer (TR-FRET) assay was used to determine the affinities of compounds of the Examples listed in Table 1 for each bromodomain of BRD4. […] An Alexa647-labeled BET-inhibitor was used as the fluorescent probe in the assay.
(§1) Compound dilution series were prepared in DMSO via an approximately 3-fold serial dilution. Compound dilutions were added directly into white, low-volume assay plates (Perkin Elmer Proxiplate 384 Plus #6008280) using a Labcyte Echo in conjunction with Labcyte Access and Thermo Multidrop CombinL robotics. Compounds were then suspended in eight microliters (μL) of assay buffer (20 mM Sodium Phosphate, pH 6.0, 50 mM NaCl, 1 mM Ethylenediaminetetraacetic acid disodium salt dihydrate, 0.01% Triton X-100, 1 mM DL-Dithiothreitol) containing His-tagged bromodomain, Europium-conjugated anti-His antibody (Invitrogen PV5596) and Alexa-647-conjugated probe.
After a one-hour equilibration at room temperature, TR-FRET ratios were determined using an Envision multilabel plate reader (Ex 340, Em 495/520).
TR-FRET data were normalized to the means of 24 no-compound controls (“high”) and 8 controls containing 1 μM un-labeled probe (“low”). Percent inhibition was plotted as a function of compound concentration and the data were fit with the 4 parameter logistic equation to obtain IC50s. Inhibition constants (Ki) were calculated from the IC50s, probe Kd and probe concentration.
Compound dilution series for Compounds A-E were prepared in DMSO via an approximately 3-fold serial dilution from 0.47 mM to 7.8 nM.
as §1, with “Compound” for “Compound dilution series were prepared in DMSO via an approximately 3-fold serial dilution. Compound”
The final concentration of 1× assay mixture contained 2% DMSO, 8 nM His-tagged bromodomain, 1 nM Europium-conjugated anti-His-tag antibody and 100 nM or 30 nM probe (for BDI or BDII, respectively) and compound concentration in the range of 9.19 μM-150 pM.
TR-FRET data were normalized to the means of 24 no-compound controls (“high”) and 8 controls containing 1 μM un-labeled probe (“low”). Percent inhibition was plotted as a function of compound concentration and the data were fit with the 4 parameter logistic equation to obtain IC50s. Inhibition constants (Ki) were calculated from the IC50s, probe Kd and probe concentration. Typical Z′ values were between 0.65 and 0.75. The minimum significant ratio was determined to evaluate assay reproducibility (Eastwood et al., (2006) J Biomol Screen, 11: 253-261). The MSR was determined to be 2.03 for BDI and 1.93 for BDII, and a moving MSR (last six run MSR overtime) for both BDI and BDII was typically <3.

pKi | SMILES
7.06 | CNC(=O)N(C)Cc1ccc(Oc2c(C)cccc2C)c(-c2cn(C)c(=O)cc2O[C@H]2CC[C@H](NC(=O)C3(C)CC3)CC2)c1 [Example 113, N-[trans-4-({5-[2-(2,6-dimethylphenoxy)-5-{[methyl(methylcarbamoyl)amino]methyl}phenyl]-1-methyl-2-oxo-1,2-dihydropyridin-4-yl}oxy)cyclohexyl]-1-methylcyclopropane-1-carboxamide]
8.41 | Cc1cc(F)cc(C)c1Oc1ccc(C(C)(C)O)cc1-c1cn(C)c(=O)cc1O[C@H]1CC[C@H](N2C(=O)COC2=O)CC1 [Example 82, 3-[trans-4-({5-[2-(4-fluoro-2,6-dimethylphenoxy)-5-(2-hydroxypropan-2-yl)phenyl]-1-methyl-2-oxo-1,2-dihydropyridin-4-yl}oxy)cyclohexyl]-1,3-oxazolidine-2,4-dione]
8.39 | Cc1cc(F)cc(C)c1Oc1ccc(C(C)(C)O)cc1-c1cn(C)c(=O)cc1O[C@H]1CC[C@H](NC(=O)C2(C#N)CC2)CC1 [Example 85, 1-cyano-N-[trans-4-({5-[2-(4-fluoro-2,6-dimethylphenoxy)-5-(2-hydroxypropan-2-yl)phenyl]-1-methyl-2-oxo-1,2-dihydropyridin-4-yl}oxy)cyclohexyl]cyclopropane-1-carboxamide]
8.24 | Cc1cc(F)cc(C)c1Oc1ccc(C(C)(C)O)cc1-c1cn(C)c(=O)cc1O[C@H]1CC[C@H](N2C(=O)NC(C)(C)C2=O)CC1 [Example 140, 3-[trans-4-({5-[2-(4-fluoro-2,6-dimethylphenoxy)-5-(2-hydroxypropan-2-yl)phenyl]-1-methyl-2-oxo-1,2-dihydropyridin-4-yl}oxy)cyclohexyl]-5,5-dimethylimidazolidine-2,4-dione]
7.97 | Cc1cc(F)cc(C)c1Oc1ccc(C(C)(C)O)cc1-c1cn(C)c(=O)cc1O[C@H]1C[C@@H](C(=O)N2CCCC2)C1 [Example 96, 5-[2-(4-fluoro-2,6-dimethylphenoxy)-5-(2-hydroxypropan-2-yl)phenyl]-1-methyl-4-{[cis-3-(pyrrolidine-1-carbonyl)cyclobutyl]oxy}pyridin-2(1H)-one]
6.26 | Cc1cc(F)cc(C)c1Oc1ccc(C(C)(C)O)cc1-c1cn(C)c(=O)cc1O[C@H]1CC[C@@H](NNC(=O)OC(C)(C)C)CC1 [Example 107, tert-butyl 2-[cis-4-({5-[2-(4-fluoro-2,6-dimethylphenoxy)-5-(2-hydroxypropan-2-yl)phenyl]-1-methyl-2-oxo-1,2-dihydropyridin-4-yl}oxy)cyclohexyl]hydrazine-1-carboxylate]
8.45 | CC(=O)NC12CCC(C(=O)N[C@H]3CC[C@H](Oc4cc(=O)n(C)cc4-c4cc(C(C)(C)O)ccc4Oc4c(C)cc(F)cc4C)CC3)(C1)C2 (relative stereo) [Example 137, 4-acetamido-N-[trans-4-({5-[2-(4-fluoro-2,6-dimethylphenoxy)-5-(2-hydroxypropan-2-yl)phenyl]-1-methyl-2-oxo-1,2-dihydropyridin-4-yl}oxy)cyclohexyl]bicyclo[2.1.1]hexane-1-carboxamide]
7.96 | Cc1cc(F)cc(C)c1Oc1ccc(C(C)(C)O)cc1-c1cn(C)c(=O)cc1O[C@H]1CC[C@H](NC(=O)c2ccccc2C(=O)O)CC1 [Example 45, 2-{[trans-4-({5-[2-(4-fluoro-2,6-dimethylphenoxy)-5-(2-hydroxypropan-2-yl)phenyl]-1-methyl-2-oxo-1,2-dihydropyridin-4-yl}oxy)cyclohexyl]carbamoyl}benzoic acid]
8.35 | Cc1cc(F)cc(C)c1Oc1ccc(C(C)(C)O)cc1-c1cn(C)c(=O)cc1O[C@H]1CC[C@H](N2C(=O)N(C)C3(CC3)C2=O)CC1 [Example 145, 6-[trans-4-({5-[2-(4-fluoro-2,6-dimethylphenoxy)-5-(2-hydroxypropan-2-yl)phenyl]-1-methyl-2-oxo-1,2-dihydropyridin-4-yl}oxy)cyclohexyl]-4-methyl-4,6-diazaspiro[2.4]heptane-5,7-dione]
8.84 | CC(=O)N[C@H]1CC[C@H](Oc2cc(=O)n(C)cc2-c2cc(C(C)(C)O)cnc2Oc2c(C)cc(C(C)(C)O)cc2C)CC1 [Example 17, N-[trans-4-({5′-(2-hydroxypropan-2-yl)-2′-[4-(2-hydroxypropan-2-yl)-2,6-dimethylphenoxy]-1-methyl-6-oxo[1,6-dihydro[3,3′-bipyridine]]-4-yl}oxy)cyclohexyl]acetamide]
8.82 | Cc1ccc(=O)n([C@H]2CC[C@H](Oc3cc(=O)n(C)cc3-c3cc(C(C)(C)O)ccc3Oc3c(C)cc(F)cc3C)CC2)n1 [Example 130, 2-[trans-4-({5-[2-(4-fluoro-2,6-dimethylphenoxy)-5-(2-hydroxypropan-2-yl)phenyl]-1-methyl-2-oxo-1,2-dihydropyridin-4-yl}oxy)cyclohexyl]-6-methylpyridazin-3(2H)-one]
8.46 | Cc1cc(F)cc(C)c1Oc1ccc(C(C)(C)O)cc1-c1cn(C)c(=O)cc1O[C@H]1CC[C@H](N2C(=O)c3ccccc3C2=O)CC1 [Example 43, 2-[trans-4-({5-[2-(4-fluoro-2,6-dimethylphenoxy)-5-(2-hydroxypropan-2-yl)phenyl]-1-methyl-2-oxo-1,2-dihydropyridin-4-yl}oxy)cyclohexyl]-1H-isoindole-1,3(2H)-dione]
6.39 | Cc1cc(F)cc(C)c1Oc1ccc(C(C)(C)O)cc1-c1cn(C)c(=O)cc1O[C@H]1CC[C@@H](C(=O)N2CCCC2)CC1 [Example 77, 5-[2-(4-fluoro-2,6-dimethylphenoxy)-5-(2-hydroxypropan-2-yl)phenyl]-1-methyl-4-{[cis-4-(pyrrolidine-1-carbonyl)cyclohexyl]oxy}pyridin-2(1H)-one]
8.08 | CCOC(=O)CN(C(=O)C1(C)CC1)[C@H]1CC[C@H](Oc2cc(=O)n(C)cc2-c2cc(C(C)(C)O)ccc2Oc2c(C)cc(F)cc2C)CC1 [Example 66, ethyl N-[trans-4-({5-[2-(4-fluoro-2,6-dimethylphenoxy)-5-(2-hydroxypropan-2-yl)phenyl]-1-methyl-2-oxo-1,2-dihydropyridin-4-yl}oxy)cyclohexyl]-N-(1-methylcyclopropane-1-carbonyl)glycinate]
7.47 | CC(=O)NC1(C)CCC(Oc2cc(=O)n(C)cc2-c2cc(C(C)(C)O)ccc2Oc2c(C)cc(F)cc2C)CC1 (stereo not drawn) [Example 32, N-[trans-4-({5-[2-(4-fluoro-2,6-dimethylphenoxy)-5-(2-hydroxypropan-2-yl)phenyl]-1-methyl-2-oxo-1,2-dihydropyridin-4-yl}oxy)-1-methylcyclohexyl]acetamide]
7.61 | Cc1cc(F)cc(C)c1Oc1ccc(C(C)(C)O)cc1-c1cn(C)c(=O)cc1O[C@H]1CC[C@H](C(=O)O)CC1 [Example 61, trans-4-({5-[2-(4-fluoro-2,6-dimethylphenoxy)-5-(2-hydroxypropan-2-yl)phenyl]-1-methyl-2-oxo-1,2-dihydropyridin-4-yl}oxy)cyclohexane-1-carboxylic acid]
7.69 | CC(=O)N(N)[C@H]1CC[C@H](Oc2cc(=O)n(C)cc2-c2cc(C(C)(C)O)ccc2Oc2c(C)cc(F)cc2C)CC1 [Example 98, N-[trans-4-({5-[2-(4-fluoro-2,6-dimethylphenoxy)-5-(2-hydroxypropan-2-yl)phenyl]-1-methyl-2-oxo-1,2-dihydropyridin-4-yl}oxy)cyclohexyl]acetohydrazide]
8.44 | Cc1cc(F)cc(C)c1Oc1ccc(C(C)(C)O)cc1-c1cn(C)c(=O)cc1O[C@H]1CC[C@H](N2C(=O)[C@H]3CCCN3C2=O)CC1 [Example 138, (7aR)-2-[trans-4-({5-[2-(4-fluoro-2,6-dimethylphenoxy)-5-(2-hydroxypropan-2-yl)phenyl]-1-methyl-2-oxo-1,2-dihydropyridin-4-yl}oxy)cyclohexyl]tetrahydro-1H-pyrrolo[1,2-c]imidazole-1,3(2H)-dione]
8.61 | Cc1cc(F)cc(C)c1Oc1ccc(C(C)(C)O)cc1-c1cn(C)c(=O)cc1O[C@H]1CC[C@H](N2CCCS2(=O)=O)CC1 [Example 52, 2-[trans-4-({5-[2-(4-fluoro-2,6-dimethylphenoxy)-5-(2-hydroxypropan-2-yl)phenyl]-1-methyl-2-oxo-1,2-dihydropyridin-4-yl}oxy)cyclohexyl]-1lambda^6,2-thiazolidine-1,1-dione]
